The source of these data is the RNAGym collection of RNA variant scans (doi:10.7554/elife.90254).

Sequences and labels used below:
B1: LINE1-mini (parent)
chain: GGCAGAGCUCAACACAGCGUGGCAAAGUGGCUGUGGCUAGACUGCC

The source gives no read counts; variants with many changes may rest on few reads.

Variants of B1 are the subject of the data set. Description: self-cleavage, relative activity (ratio to wild type); higher = more cleavage; in vitro, sequencing; the parent is a self-cleaving ribozyme.
As to G5A G19U U20A A25G, the self-cleavage was 0.

Regarding G5C G7C G21U, the self-cleavage turned out to be 0.08. As for G5A G17U U20C C45U C46G, the self-cleavage worked out at 0.01. On to G5A C8U U9C G21A G22A C23A G27U G35U C37A, for which the self-cleavage came to 0.01. To G5A A25G C31U C46G belongs 0.03. To G5A U20G C23G A24U C31A G33C belongs 0.04; to G5A C13G G35A G44U, 0.04. The value for G5C A11U A24U G35U was 0; that for G5C G22A A25C was 0.05. For the variant G5C G7A G44C, the self-cleavage was found to be 0.29. The value for G5A A41G G44A was 0.1. The value for G5A G30A U32G G33A C46A was 0.02; that for G5A G21A C23A was 0.03.

Take G5C A16G G33C C37A: the self-cleavage stood at 0.02. Turning to G5C G27C U34A G40C, the self-cleavage was 0.03. To G5C U9A C10G C23A belongs 0.02; to G5A G7U C8A U9C C10U C37G C42U, 0.02. For G5A C8G C15G G27U G33U C42G, the self-cleavage came out at 0.07. Consider G5C A16U C18U C37U, for which the self-cleavage was 0.03. On to G5C G21A G44A, for which the self-cleavage turned out to be 0.04. As to G5C G27A U28A G44U, the self-cleavage is 0.07. With G5A C10A U32A C42A U43G C46U, the self-cleavage came to 0.03. The value for G5C A24U U32G G44C was 0.06; that for G5C C10A G29U C31A was 0. With G5C A39U U43A, the self-cleavage is 0. On to G5C G21A G29U, for which the self-cleavage amounted to 0.05. To G5A C13A G17A belongs 0.09; to G5C G35U C37G C46U, 0.02; to G5C G29C C42U G44U, 0.06. To G5C G27U U34C G40C C42A belongs 0.06. The value for G5A C13U U38A G40A C42A was 0.01; that for G5C U9A A24G U32C was 0.05; that for G5C C10A A12C U43A was 0.03.

Turning to G5A C10A C15U G27U G35A G44A, the self-cleavage was 0.02.

On to G5C C10A U20G C31A, for which the self-cleavage is 0.01. The value for G5A C8A A12G C23A G36A was 0.38. In the case of G5C C15A C37G, the self-cleavage amounted to 0.01. Take G5C C8A U9A C15A G17C U43A: the self-cleavage turned out to be 0.07. To G5A G19A A25U A39U belongs 0.11; to G5A A24C G33U, 0.03; to G5A C8G G21A C42A, 0.12. To G5A A26C U28G G30A belongs 0.12; to G5A A16C C18A, 0.14; to G5A G22C C37G C46G, 0.02. On to G5A A14C U43A C46A, for which the self-cleavage came to 0.08. In the case of G5A G17U U20G, the self-cleavage turned out to be 0.09.

On to G5C G36A C45G, for which the self-cleavage was found to be 0.01.

G5C U9C C23G A24G: the self-cleavage came out at 0.04. To G5A G27U G33A belongs 0.08; to G5C A11U G21A G27C, 0. Take G5A U32A G36A A39G: the self-cleavage was 0.11. The value for G5C A11U C13U A14U U20G A25U G29U G40A was 0.01; that for G5C A11C U20A C31U C37U was 0; that for G5A U20G G44U was 0.03. The value for G5C G30A C45A was 0.04.

G5A G30C C31U A41C: the self-cleavage turned out to be 0.03.

For the variant G5A A26G G36U, the self-cleavage turned out to be 0.04. The value for G5C A14G G19C G29U G36C was 0.02; that for G5A C8A G40A was 0.58.

On to G5C A12U C13G C15U G30A, for which the self-cleavage is 0.01. Turning to G5C A39U C46G, the self-cleavage turned out to be 0.04. As to G5A U9C A11U C42G C46U, the self-cleavage was 0.01. To G5C G22A G44C belongs 0.06; to G5C C10G U43G, 0. For G5A C10G A25G G29A, the self-cleavage came to 0.01. For the variant G5C A12U C18A A24G C46A, the self-cleavage is 0.01. On to G5C A26G G29U, for which the self-cleavage came to 0.02. To G5C G17U C23A U28A C31U G36U C37A A39U belongs 0. Turning to G5C A11U G21C A24G G27A C31A U38C, the self-cleavage stood at 0.01. The value for G5A C18U G40U was 0.14; that for G5A C18A G35A C46A was 0.14; that for G5A G7U C23A C42A was 0.06. To G5A G19U G21A belongs 0.19; to G5C C10A G30C C31A G33C, 0.02.

Turning to G5A G35C A41U, the self-cleavage was 0.08. With G5A G7U A16U G27U G29U, the self-cleavage was found to be 0.12.

G5C C13G U28C G40A: the self-cleavage came to 0.11. Turning to G5C C13G U20G, the self-cleavage was 0.02. G5A C8A C23A U32A: the self-cleavage stood at 0.76. The value for G5A G7C G35U C45A was 0.21; that for G5C C23U A26C G29U G36U C46U was 0.03. To G5C G21A C23G G35A belongs 0.02; to G5A C15U G29A G30U U43G G44C, 0.05. Regarding G5A C8U U43A, the self-cleavage was 0.43. For G5C G36U U43A, the self-cleavage stood at 0.04. G5C C15U C45U C46U: the self-cleavage was found to be 0.04. To G5C U9A C13A A24G belongs 0.07; to G5A G7A A16C A24C U32G, 0.24; to G5C C10A G19U, 0.03. For G5C A12C C18U U20C G21U, the self-cleavage was determined as 0.01. With G5C G7U G40C, the self-cleavage was determined as 0.21. G5C C10U A11G C46A: the self-cleavage was 0.02.

Regarding G5C C8A G44C, the self-cleavage is 0.1. For the variant G5A G7U G22A, the self-cleavage was 0.12. G5A G7A A26C: the self-cleavage was found to be 0.41. On to G5A C10G G21A A25U C31A U34C C42A, for which the self-cleavage came out at 0.01. As to G5A U9C G35A, the self-cleavage came out at 0.03. In the case of G5A G17C G19C A41G, the self-cleavage is 0.03. As for G5A C10U G30C G40C, the self-cleavage was 0.01.

Turning to G5A U9A G27C, the self-cleavage is 0.23.

Regarding G5C G29C U38G, the self-cleavage turned out to be 0.01. On to G5A C37G C46G, for which the self-cleavage is 0.03.

As to G5C U9A A39G, the self-cleavage is 0.05. The value for G5C G22U U38C was 0.04. The value for G5C C23U G40A was 0.03; that for G5C U9C C10U C15A C18A G22U U28C was 0.01. To G5A G19A C42U C45U belongs 2.83. Regarding G5A A39U G44U, the self-cleavage is 0.14. As for G5A C8A C10U G22C, the self-cleavage came to 0.

For the variant G5A A14U C45U, the self-cleavage came out at 0.04. To G5A U9G C23A C31A belongs 0.03. For the variant G5A U9A G21A G44A, the self-cleavage turned out to be 0.06. The value for G5A G7C A11G A12G G27A C31A G36C C46U was 0. As for G5C A16C A26G, the self-cleavage came out at 0.05.

For G5A A26C G29A G30A G33A G36C U38A, the self-cleavage turned out to be 0.02. The value for G5C C18G G21U A24G was 0.03; that for G5A C13A G19U U38C G44A was 0.02; that for G5A C31U C37G was 0.07.

In the case of G5C C15A G22U G30U A41C, the self-cleavage worked out at 0.05. On to G5C U9A C18A G22C A25G A39G, for which the self-cleavage is 0.03. As for G5A A41U U43C, the self-cleavage is 0.01.

G5A U32A A41U: the self-cleavage came to 0.08.

On to G5C A16U G17A, for which the self-cleavage is 0.03. To G5C U9G A24U G44A belongs 0.07; to G5A A16U G22A U32G U43C G44C, 0.

For G5C C10G C15G G21U, the self-cleavage stood at 0.01. Take G5A G30U G35C U38G: the self-cleavage was 0.05. Turning to G5C G19C C23U, the self-cleavage was found to be 0.04. For G5C C8A G22C A26C G30C G44C, the self-cleavage was found to be 0.15. Regarding G5C A16G G19C G36A, the self-cleavage is 0.03. For the variant G5C C13U G22C C23A U34A, the self-cleavage was determined as 0.02.

For the variant G5A C18A G21A C37A A41U C46G, the self-cleavage was found to be 0.01. To G5C A6U C8U belongs 0.06; to G5C G30A G33U C42G C45U, 0.1; to G5A C10U G19U G33A, 0.06.

For G5C C10A G19C A41C, the self-cleavage is 0.01. To G5A C13G G30A belongs 0.13; to G5A U9G G22U, 0.1; to G5C A12C U20C U32C, 0.02. Consider G5A G27A G33U, for which the self-cleavage is 0.04. To G5C A6G A12C belongs 0.03; to G5C G33U A41U, 0.07; to G5A U9A C15G C23A A26C G29A G35A, 0.09. The value for G5C C10G G27C U28C C45A was 0; that for G5C A25U G35A was 0.06.

For G5A A26U G40C, the self-cleavage came out at 0.05. On to G5A C15A A16G U28A C31U, for which the self-cleavage was 0.01. Take G5C G22U G44A: the self-cleavage turned out to be 0.05. Regarding G5C A6G U43A, the self-cleavage turned out to be 0.08. For G5C C10A A14G U20C C23A U28A G29U A41U C42G, the self-cleavage is 0.05. Take G5A G7C G19C: the self-cleavage was found to be 0.04. With G5A U9C C31G, the self-cleavage was 0.02. To G5C A11G A16G G40A belongs 0.02. The value for G5A C10G U28G C45G was 0.02; that for G5C C18A A26G C46U was 0.03; that for G5C G35A G40A C42U was 0.01. To G5C C13G A25U C45U belongs 0.17; to G5C G29U C45A C46U, 0.07. G5A G19C C31A U32G G33C: the self-cleavage worked out at 0.03. To G5A C10A A12C U20A C31G C45G belongs 0.01. Consider G5A C10A C15U G19C A25C, for which the self-cleavage turned out to be 0.01. The value for G5A C13U G29A A41C was 0.05; that for G5A U9C C23U C31G was 0.02. Take G5C C8U A25U C31A U34G: the self-cleavage is 0.38. The value for G5A G17U G21U was 0.08; that for G5A C18G C23U G33A was 0.1. To G5A C13A A24U G35C G36U belongs 0.04.
